Experiment [1] has as its target T1, β-coat protein (β-COP), endogenous in cultured mouse astrocytes (mouse (endogenous in cultured astrocytes)) (UniProt Q9JIF7).
T1 sequence: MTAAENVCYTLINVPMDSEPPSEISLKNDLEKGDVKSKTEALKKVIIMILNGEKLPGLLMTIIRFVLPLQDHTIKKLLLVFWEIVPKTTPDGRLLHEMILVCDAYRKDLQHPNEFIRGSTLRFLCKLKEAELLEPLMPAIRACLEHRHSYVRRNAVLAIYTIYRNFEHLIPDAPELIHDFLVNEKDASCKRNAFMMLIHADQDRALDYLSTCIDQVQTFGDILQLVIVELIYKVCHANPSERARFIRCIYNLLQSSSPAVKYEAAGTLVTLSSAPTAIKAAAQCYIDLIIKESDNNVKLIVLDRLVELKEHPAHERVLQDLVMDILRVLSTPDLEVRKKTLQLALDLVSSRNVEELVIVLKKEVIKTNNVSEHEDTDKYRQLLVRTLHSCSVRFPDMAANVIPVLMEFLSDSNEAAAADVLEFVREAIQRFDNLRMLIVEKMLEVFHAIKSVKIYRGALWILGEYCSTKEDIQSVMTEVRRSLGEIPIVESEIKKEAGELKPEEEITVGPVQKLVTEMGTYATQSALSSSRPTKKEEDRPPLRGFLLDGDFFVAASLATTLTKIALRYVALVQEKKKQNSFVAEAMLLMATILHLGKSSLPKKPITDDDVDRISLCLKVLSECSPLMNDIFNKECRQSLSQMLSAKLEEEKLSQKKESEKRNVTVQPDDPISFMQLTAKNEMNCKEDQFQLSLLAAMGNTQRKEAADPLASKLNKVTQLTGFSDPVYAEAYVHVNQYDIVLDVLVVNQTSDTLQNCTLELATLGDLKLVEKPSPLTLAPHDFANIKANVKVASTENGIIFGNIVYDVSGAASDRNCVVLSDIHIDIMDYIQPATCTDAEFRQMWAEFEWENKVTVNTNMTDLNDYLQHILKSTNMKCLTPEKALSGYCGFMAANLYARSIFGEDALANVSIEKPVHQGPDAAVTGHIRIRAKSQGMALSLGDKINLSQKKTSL
Kind of experiment: co-IP; endogenous proteins, cultured astrocyte lysate in RIPA buffer, IP overnight at 4 °C with anti-TREK1 or anti-β-COP, Protein G agarose, blot for the other protein.

Protein sequences, listed by entry. Tags and fused reporters are not part of them. Lines headed by an entry give the natural chain unless they say otherwise; changes in a name come on top. Chains listed by the source or under a name are the forms on record and can include a tag or linker.
UniProt P97438: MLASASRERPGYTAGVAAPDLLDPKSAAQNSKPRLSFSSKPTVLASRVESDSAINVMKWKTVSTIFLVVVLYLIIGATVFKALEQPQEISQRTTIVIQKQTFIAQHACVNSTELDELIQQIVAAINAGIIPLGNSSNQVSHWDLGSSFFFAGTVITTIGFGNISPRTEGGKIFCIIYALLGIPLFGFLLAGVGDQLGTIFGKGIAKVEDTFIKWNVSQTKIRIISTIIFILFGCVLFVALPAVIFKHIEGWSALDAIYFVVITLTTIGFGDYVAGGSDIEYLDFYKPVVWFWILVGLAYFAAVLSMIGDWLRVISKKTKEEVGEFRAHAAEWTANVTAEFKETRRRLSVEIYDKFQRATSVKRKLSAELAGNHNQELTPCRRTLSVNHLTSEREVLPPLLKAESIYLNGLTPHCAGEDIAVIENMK
Flag-tagged TREK1 isotype 2 (P97438, form named): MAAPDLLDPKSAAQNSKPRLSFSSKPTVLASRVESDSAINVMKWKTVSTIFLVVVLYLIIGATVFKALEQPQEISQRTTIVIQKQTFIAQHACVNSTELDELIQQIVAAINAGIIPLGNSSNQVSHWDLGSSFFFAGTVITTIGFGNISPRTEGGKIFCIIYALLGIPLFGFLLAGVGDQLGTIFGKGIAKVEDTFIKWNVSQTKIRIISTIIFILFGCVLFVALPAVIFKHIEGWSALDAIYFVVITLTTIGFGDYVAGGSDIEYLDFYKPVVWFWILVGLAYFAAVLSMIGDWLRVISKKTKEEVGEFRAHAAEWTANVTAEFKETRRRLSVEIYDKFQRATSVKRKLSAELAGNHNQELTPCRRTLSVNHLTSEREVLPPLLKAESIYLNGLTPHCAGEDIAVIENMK

For experiment [2], the target named is TWIK-related K+ channel 1 (TREK1), endogenous in cultured mouse astrocytes (mouse (endogenous in cultured astrocytes)) (UniProt P97438). Put plainly: proximity ligation; Duolink PLA in fixed cultured mouse astrocytes with anti-TREK1 and anti-β-COP; anti-β-COP alone as control.
The target is the same in experiment [3]. Kind of experiment: co-IP; endogenous proteins, cultured astrocyte lysate in RIPA buffer, IP overnight at 4 °C with anti-TREK1 or anti-β-COP, Protein G agarose, blot for the other protein.
Experiment [4] deals with VC-TREK1 isotype 2 (C-terminal portion of Venus fused to TREK1 isotype 2) (mouse) (UniProt P97438). Kind of experiment: split reporter; BiFC with split Venus (VN173, VC155) in co-transfected HEK293T cells, fixed 24 h after transfection, confocal microscopy.
Experiment [5] concerns the target Flag-tagged TREK1 isotype 2 (mouse) (UniProt P97438). Kind of experiment: co-IP; HEK293T cells co-transfected with Flag-tagged channel and GFP-β-COP, RIPA lysate, IP with anti-Flag, blot with anti-GFP.
Experiment [6] deals with T2, Flag-tagged TWIK1 (mouse) (UniProt O08581).
T2 sequence: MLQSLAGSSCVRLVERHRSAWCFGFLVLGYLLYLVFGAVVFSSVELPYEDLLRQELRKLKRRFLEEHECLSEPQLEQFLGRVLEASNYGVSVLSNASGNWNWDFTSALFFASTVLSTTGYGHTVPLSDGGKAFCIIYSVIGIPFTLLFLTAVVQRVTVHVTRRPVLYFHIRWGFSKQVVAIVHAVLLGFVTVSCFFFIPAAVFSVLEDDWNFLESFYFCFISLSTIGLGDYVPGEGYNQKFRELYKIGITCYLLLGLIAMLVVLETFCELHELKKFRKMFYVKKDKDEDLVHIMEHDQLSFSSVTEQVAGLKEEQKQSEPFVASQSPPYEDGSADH
Described as above.

Results are given in words; binding and its absence hold for the method and conditions named. In cells and extracts the contact can be indirect. Some binding calls cover weakened binding; strength is not graded here. For part of these data: Tags and fused reporters may be left off the sequences shown.

Consider “TWIK-related K+ channel 1 (TREK1), endogenous in cultured mouse astrocytes (from UniProt P97438 1-426)”, for which the binding entry in experiment [1] was “binds”.

B1: β-coat protein (β-COP), endogenous in cultured mouse astrocytes (protein, UniProt Q9JIF7 1-953)
chain: T1 sequence
Regarding B1, the binding entry in experiment [2] and in experiment [3] was “binds” each time.

B2: VN-β-COP (N-terminal portion of Venus fused to β-COP) (protein, UniProt Q9JIF7 1-953)
chain: T1 sequence
Consider B2, for which the binding result in experiment [4] was “binds”.

B3: GFP-tagged β-COP (protein, UniProt Q9JIF7 1-953)
chain: T1 sequence
For B3, the binding entry in experiment [5] was “binds”; in experiment [6] it was “no binding”.

The values above are taken from publication PMC9600989.
